# Results are given in words; binding and its absence hold for the method and conditions named. Some entries that bind do so weakly or less than the wild type. For part of these data: Sequences can lack the tags named with a protein.
# Key:
# [1] = target: HA–Fubi-VS (C57L, from GST–3C-GS-HA–Fubi^1–73) (human) (UniProt P62861); assay: activity-based probe labelling (covalent conjugate), western blot; HEK293 lysate (endogenous or overexpressed Flag-tagged full-length USP) at 2 mg/ml incubated with 10 µM probe for 1 h at 37 °C; SDS-PAGE and western blotting; only the target purified
# [2] = target: HA–Fubi-VS (C57L, from GST–3C-GS-HA–Fubi^1–73) (human) (UniProt P62861); assay: activity-based probe labelling (covalent conjugate), western blot; lysates of HEK293 cells overexpressing Flag-tagged full-length USP proteins; milder labeling conditions (not told further); only the target purified
# [3] = target: Fubi-PA L72R (human) (UniProt P62861); assay: activity-based probe labelling (covalent conjugate), SDS-PAGE; purified protease 2.5 µM and probe 10 µM, 1 h at 37 °C; 20 mM Tris pH 8.0, 300 mM NaCl, 2 mM DTT, 5% glycerol; SDS-PAGE and Coomassie staining; both purified
# [4] = target: Fubi-PA V40R P47Q (human) (UniProt P62861); assay: as above
binding [1],binding [2],binding [3],binding [4],Binder
no binding (tested: 10 µM probe),,,,"Flag–USP42, full length (enzyme, UniProt Q9H9J4 1-1324) MTIVDKASESSDPSAYQNQPGSSEAVSPGDMDAGSASWGAVSSLNDVSNHTLSLGPVPGAVVYSSSSVPDKSKPSPQKDQALGDGIAPPQKVLFPSEKICLKWQQTHRVGAGLQNLGNTCFANAALQCLTYTPPLANYMLSHEHSKTCHAEGFCMMCTMQAHITQALSNPGDVIKPMFVINEMRRIARHFRFGNQEDAHEFLQYTVDAMQKACLNGSNKLDRHTQATTLVCQIFGGYLRSRVKCLNCKGVSDTFDPYLDITLEIKAAQSVNKALEQFVKPEQLDGENSYKCSKCKKMVPASKRFTIHRSSNVLTLSLKRFANFTGGKIAKDVKYPEYLDIRPYMSQPNGEPIVYVLYAVLVHTGFNCHAGHYFCYIKASNGLWYQMNDSIVSTSDIRSVLSQQAYVLFYIRSHDVKNGGELTHPTHSPGQSSPRPVISQRVVTNKQAAPGFIGPQLPSHMIKNPPHLNGTGPLKDTPSSSMSSPNGNSSVNRASPVNASASVQNWSVNRSSVIPEHPKKQKITISIHNKLPVRQCQSQPNLHSNSLENPTKPVPSSTITNSAVQSTSNASTMSVSSKVTKPIPRSESCSQPVMNGKSKLNSSVLVPYGAESSEDSDEESKGLGKENGIGTIVSSHSPGQDAEDEEATPHELQEPMTLNGANSADSDSDPKENGLAPDGASCQGQPALHSENPFAKANGLPGKLMPAPLLSLPEDKILETFRLSNKLKGSTDEMSAPGAERGPPEDRDAEPQPGSPAAESLEEPDAAAGLSSTKKAPPPRDPGTPATKEGAWEAMAVAPEEPPPSAGEDIVGDTAPPDLCDPGSLTGDASPLSQDAKGMIAEGPRDSALAEAPEGLSPAPPARSEEPCEQPLLVHPSGDHARDAQDPSQSLGAPEAAERPPAPVLDMAPAGHPEGDAEPSPGERVEDAAAPKAPGPSPAKEKIGSLRKVDRGHYRSRRERSSSGEPARESRSKTEGHRHRRRRTCPRERDRQDRHAPEHHPGHGDRLSPGERRSLGRCSHHHSRHRSGVELDWVRHHYTEGERGWGREKFYPDRPRWDRCRYYHDRYALYAARDWKPFHGGREHERAGLHERPHKDHNRGRRGCEPARERERHRPSSPRAGAPHALAPHPDRFSHDRTALVAGDNCNLSDRFHEHENGKSRKRRHDSVENSDSHVEKKARRSEQKDPLEEPKAKKHKKSKKKKKSKDKHRDRDSRHQQDSDLSAACSDADLHRHKKKKKKKKRHSRKSEDFVKDSELHLPRVTSLETVAQFRRAQGGFPLSGGPPLEGVGPFREKTKHLRMESRDDRCRLFEYGQGKRRYLELGR"
binds,,,,"endogenous USP36 (enzyme, UniProt Q9P275 1-1123) MPIVDKLKEALKPGRKDSADDGELGKLLASSAKKVLLQKIEFEPASKSFSYQLEALKSKYVLLNPKTEGASRHKSGDDPPARRQGSEHTYESCGDGVPAPQKVLFPTERLSLRWERVFRVGAGLHNLGNTCFLNATIQCLTYTPPLANYLLSKEHARSCHQGSFCMLCVMQNHIVQAFANSGNAIKPVSFIRDLKKIARHFRFGNQEDAHEFLRYTIDAMQKACLNGCAKLDRQTQATTLVHQIFGGYLRSRVKCSVCKSVSDTYDPYLDVALEIRQAANIVRALELFVKADVLSGENAYMCAKCKKKVPASKRFTIHRTSNVLTLSLKRFANFSGGKITKDVGYPEFLNIRPYMSQNNGDPVMYGLYAVLVHSGYSCHAGHYYCYVKASNGQWYQMNDSLVHSSNVKVVLNQQAYVLFYLRIPGSKKSPEGLISRTGSSSLPGRPSVIPDHSKKNIGNGIISSPLTGKRQDSGTMKKPHTTEEIGVPISRNGSTLGLKSQNGCIPPKLPSGSPSPKLSQTPTHMPTILDDPGKKVKKPAPPQHFSPRTAQGLPGTSNSNSSRSGSQRQGSWDSRDVVLSTSPKLLATATANGHGLKGNDESAGLDRRGSSSSSPEHSASSDSTKAPQTPRSGAAHLCDSQETNCSTAGHSKTPPSGADSKTVKLKSPVLSNTTTEPASTMSPPPAKKLALSAKKASTLWRATGNDLRPPPPSPSSDLTHPMKTSHPVVASTWPVHRARAVSPAPQSSSRLQPPFSPHPTLLSSTPKPPGTSEPRSCSSISTALPQVNEDLVSLPHQLPEASEPPQSPSEKRKKTFVGEPQRLGSETRLPQHIREATAAPHGKRKRKKKKRPEDTAASALQEGQTQRQPGSPMYRREGQAQLPAVRRQEDGTQPQVNGQQVGCVTDGHHASSRKRRRKGAEGLGEEGGLHQDPLRHSCSPMGDGDPEAMEESPRKKKKKKRKQETQRAVEEDGHLKCPRSAKPQDAVVPESSSCAPSANGWCPGDRMGLSQAPPVSWNGERESDVVQELLKYSSDKAYGRKVLTWDGKMSAVSQDAIEDSRQARTETVVDDWDEEFDRGKEKKIKKFKREKRRNFNAFQKLQTRRNFWSVTHPAKAASLSYRR"
binds,binds,,,"Flag–USP36, full length (enzyme, UniProt Q9P275 1-1123) MPIVDKLKEALKPGRKDSADDGELGKLLASSAKKVLLQKIEFEPASKSFSYQLEALKSKYVLLNPKTEGASRHKSGDDPPARRQGSEHTYESCGDGVPAPQKVLFPTERLSLRWERVFRVGAGLHNLGNTCFLNATIQCLTYTPPLANYLLSKEHARSCHQGSFCMLCVMQNHIVQAFANSGNAIKPVSFIRDLKKIARHFRFGNQEDAHEFLRYTIDAMQKACLNGCAKLDRQTQATTLVHQIFGGYLRSRVKCSVCKSVSDTYDPYLDVALEIRQAANIVRALELFVKADVLSGENAYMCAKCKKKVPASKRFTIHRTSNVLTLSLKRFANFSGGKITKDVGYPEFLNIRPYMSQNNGDPVMYGLYAVLVHSGYSCHAGHYYCYVKASNGQWYQMNDSLVHSSNVKVVLNQQAYVLFYLRIPGSKKSPEGLISRTGSSSLPGRPSVIPDHSKKNIGNGIISSPLTGKRQDSGTMKKPHTTEEIGVPISRNGSTLGLKSQNGCIPPKLPSGSPSPKLSQTPTHMPTILDDPGKKVKKPAPPQHFSPRTAQGLPGTSNSNSSRSGSQRQGSWDSRDVVLSTSPKLLATATANGHGLKGNDESAGLDRRGSSSSSPEHSASSDSTKAPQTPRSGAAHLCDSQETNCSTAGHSKTPPSGADSKTVKLKSPVLSNTTTEPASTMSPPPAKKLALSAKKASTLWRATGNDLRPPPPSPSSDLTHPMKTSHPVVASTWPVHRARAVSPAPQSSSRLQPPFSPHPTLLSSTPKPPGTSEPRSCSSISTALPQVNEDLVSLPHQLPEASEPPQSPSEKRKKTFVGEPQRLGSETRLPQHIREATAAPHGKRKRKKKKRPEDTAASALQEGQTQRQPGSPMYRREGQAQLPAVRRQEDGTQPQVNGQQVGCVTDGHHASSRKRRRKGAEGLGEEGGLHQDPLRHSCSPMGDGDPEAMEESPRKKKKKKRKQETQRAVEEDGHLKCPRSAKPQDAVVPESSSCAPSANGWCPGDRMGLSQAPPVSWNGERESDVVQELLKYSSDKAYGRKVLTWDGKMSAVSQDAIEDSRQARTETVVDDWDEEFDRGKEKKIKKFKREKRRNFNAFQKLQTRRNFWSVTHPAKAASLSYRR"
,,no binding (tested: 10 µM probe),no binding (tested: 10 µM probe),"USP2^258–605 (catalytic domain) (enzyme, UniProt O75604 258-605) MNSKSAQGLAGLRNLGNTCFMNSILQCLSNTRELRDYCLQRLYMRDLHHGSNAHTALVEEFAKLIQTIWTSSPNDVVSPSEFKTQIQRYAPRFVGYNQQDAQEFLRFLLDGLHNEVNRVTLRPKSNPENLDHLPDDEKGRQMWRKYLEREDSRIGDLFVGQLKSSLTCTDCGYCSTVFDPFWDLSLPIAKRGYPEVTLMDCMRLFTKEDVLDGDEKPTCCRCRGRKRCIKKFSIQRFPKILVLHLKRFSESRIRTSKLTTFVNFPLRDLDLREFASENTNHAVYNLYAVSNHSGTTMGGHYTAYCRSPGTGEWHTFNDSSVTPMSSSQVRTSDAYLLFYELASPPSRM"
,,binds weakly,binds weakly,"USP42^70–446 (catalytic domain) (enzyme, UniProt Q9H9J4 70-446) DKSKPSPQKDQALGDGIAPPQKVLFPSEKICLKWQQTHRVGAGLQNLGNTCFANAALQCLTYTPPLANYMLSHEHSKTCHAEGFCMMCTMQAHITQALSNPGDVIKPMFVINEMRRIARHFRFGNQEDAHEFLQYTVDAMQKACLNGSNKLDRHTQATTLVCQIFGGYLRSRVKCLNCKGVSDTFDPYLDITLEIKAAQSVNKALEQFVKPEQLDGENSYKCSKCKKMVPASKRFTIHRSSNVLTLSLKRFANFTGGKIAKDVKYPEYLDIRPYMSQPNGEPIVYVLYAVLVHTGFNCHAGHYFCYIKASNGLWYQMNDSIVSTSDIRSVLSQQAYVLFYIRSHDVKNGGELTHPTHSPGQSSPRPVISQRVVTNKQ"
no binding (tested: 10 µM probe),,,,"Flag–USP48, full length (enzyme, UniProt Q86UV5 1-1035) MAPRLQLEKAAWRWAETVRPEEVSQEHIETAYRIWLEPCIRGVCRRNCKGNPNCLVGIGEHIWLGEIDENSFHNIDDPNCERRKKNSFVGLTNLGATCYVNTFLQVWFLNLELRQALYLCPSTCSDYMLGDGIQEEKDYEPQTICEHLQYLFALLQNSNRRYIDPSGFVKALGLDTGQQQDAQEFSKLFMSLLEDTLSKQKNPDVRNIVQQQFCGEYAYVTVCNQCGRESKLLSKFYELELNIQGHKQLTDCISEFLKEEKLEGDNRYFCENCQSKQNATRKIRLLSLPCTLNLQLMRFVFDRQTGHKKKLNTYIGFSEILDMEPYVEHKGGSYVYELSAVLIHRGVSAYSGHYIAHVKDPQSGEWYKFNDEDIEKMEGKKLQLGIEEDLAEPSKSQTRKPKCGKGTHCSRNAYMLVYRLQTQEKPNTTVQVPAFLQELVDRDNSKFEEWCIEMAEMRKQSVDKGKAKHEEVKELYQRLPAGAEPYEFVSLEWLQKWLDESTPTKPIDNHACLCSHDKLHPDKISIMKRISEYAADIFYSRYGGGPRLTVKALCKECVVERCRILRLKNQLNEDYKTVNNLLKAAVKGSDGFWVGKSSLRSWRQLALEQLDEQDGDAEQSNGKMNGSTLNKDESKEERKEEEELNFNEDILCPHGELCISENERRLVSKEAWSKLQQYFPKAPEFPSYKECCSQCKILEREGEENEALHKMIANEQKTSLPNLFQDKNRPCLSNWPEDTDVLYIVSQFFVEEWRKFVRKPTRCSPVSSVGNSALLCPHGGLMFTFASMTKEDSKLIALIWPSEWQMIQKLFVVDHVIKITRIEVGDVNPSETQYISEPKLCPECREGLLCQQQRDLREYTQATIYVHKVVDNKKVMKDSAPELNVSSSETEEDKEEAKPDGEKDPDFNQSNGGTKRQKISHQNYIAYQKQVIRRSMRHRKVRGEKALLVSANQTLKELKIQIMHAFSVAPFDQNLSIDGKILSDDCATLGTLGVIPESVILLKADEPIADYAAMDDVMQVCMPEEGFKGTGLLGH"

# From PMC10611586
